{"source": "the supplement of paper PMC6531468", "note": "Some of the results follow. Read counts after selection give these values, which scatter widely. Scores sum up all selected molecules that hold the word; the word was not tested alone.", "data": [{"target": "IMP3 full-length (UniProt O00425)", "sequence (O00425 whole entry)": "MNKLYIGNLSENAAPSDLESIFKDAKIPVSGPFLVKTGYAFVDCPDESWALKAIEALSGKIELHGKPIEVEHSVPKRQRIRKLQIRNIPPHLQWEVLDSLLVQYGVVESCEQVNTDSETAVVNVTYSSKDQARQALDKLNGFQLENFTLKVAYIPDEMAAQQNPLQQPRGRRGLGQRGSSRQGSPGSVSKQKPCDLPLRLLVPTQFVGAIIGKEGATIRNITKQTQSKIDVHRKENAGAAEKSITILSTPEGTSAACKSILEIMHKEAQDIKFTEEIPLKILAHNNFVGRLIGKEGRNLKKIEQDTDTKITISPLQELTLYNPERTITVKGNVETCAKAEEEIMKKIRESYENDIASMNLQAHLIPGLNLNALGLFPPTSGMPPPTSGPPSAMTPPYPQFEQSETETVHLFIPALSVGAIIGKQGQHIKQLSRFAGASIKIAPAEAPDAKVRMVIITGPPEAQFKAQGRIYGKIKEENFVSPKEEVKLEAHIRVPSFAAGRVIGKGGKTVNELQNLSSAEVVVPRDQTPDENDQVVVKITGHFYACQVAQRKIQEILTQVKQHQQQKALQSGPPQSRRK", "assay": "6-mer SELEX enrichment z-score vs GST control; IMP3 is the RNA-binding protein IGF2BP3; higher = more enriched by binding", "conditions": "construct: FL IMP3 (1-579); SELEX round: R4", "procedure": "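SELEX-seq with GST-tagged full-length IMP3 and an N40 RNA pool, round 4. Each 6-mer is scored as an enrichment z-score of sequence tags containing it, normalised to the matching GST SELEX round. RNA written as DNA (T = U).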", "values": [{"sequence": "GATGTT", "6-mer SELEX enrichment z-score": -0.107}, {"sequence": "AGAGAC", "6-mer SELEX enrichment z-score": -0.66}, {"sequence": "GTCCAG", "6-mer SELEX enrichment z-score": 0.221}, {"sequence": "TAAGGA", "6-mer SELEX enrichment z-score": -0.257}, {"sequence": "AAACCG", "6-mer SELEX enrichment z-score": -1.87}, {"sequence": "TAGATT", "6-mer SELEX enrichment z-score": -0.022}, {"sequence": "AACCCC", "6-mer SELEX enrichment z-score": -1.97}, {"sequence": "CATAGC", "6-mer SELEX enrichment z-score": 0.934}, {"sequence": "ACCCTG", "6-mer SELEX enrichment z-score": -1.37}, {"sequence": "GCACAG", "6-mer SELEX enrichment z-score": 2.12}, {"sequence": "CGTAAG", "6-mer SELEX enrichment z-score": -0.823}, {"sequence": "GCATAA", "6-mer SELEX enrichment z-score": 0.943}, {"sequence": "TGGTGG", "6-mer SELEX enrichment z-score": 0.447}, {"sequence": "TTCAAG", "6-mer SELEX enrichment z-score": 0.248}, {"sequence": "TTCCCT", "6-mer SELEX enrichment z-score": -0.424}, {"sequence": "GTAAAG", "6-mer SELEX enrichment z-score": -0.841}, {"sequence": "CCGATT", "6-mer SELEX enrichment z-score": -0.51}, {"sequence": "TTGCAA", "6-mer SELEX enrichment z-score": -0.068}, {"sequence": "TACACT", "6-mer SELEX enrichment z-score": 0.659}, {"sequence": "TAATAT", "6-mer SELEX enrichment z-score": 0.235}, {"sequence": "GATCTA", "6-mer SELEX enrichment z-score": -0.283}, {"sequence": "CTCGCC", "6-mer SELEX enrichment z-score": -0.063}, {"sequence": "ACGAAG", "6-mer SELEX enrichment z-score": -0.818}, {"sequence": "CTAAAT", "6-mer SELEX enrichment z-score": -0.656}, {"sequence": "CTGGGA", "6-mer SELEX enrichment z-score": 0.021}, {"sequence": "GATTTG", "6-mer SELEX enrichment z-score": -0.139}, {"sequence": "CCGCAA", "6-mer SELEX enrichment z-score": 0.073}, {"sequence": "GGGTCG", "6-mer SELEX enrichment z-score": 0.681}, {"sequence": "CGTAAA", "6-mer SELEX enrichment z-score": -1.64}, {"sequence": "TTGGCT", "6-mer SELEX enrichment z-score": 0.199}, {"sequence": "CGGACG", "6-mer SELEX enrichment z-score": -0.42}, {"sequence": "ACTGTA", "6-mer SELEX enrichment z-score": -0.09}, {"sequence": "TCTCAT", "6-mer SELEX enrichment z-score": 0.941}, {"sequence": "CTTATT", "6-mer SELEX enrichment z-score": 0.304}, {"sequence": "TAGGAG", "6-mer SELEX enrichment z-score": 0.161}, {"sequence": "CTTCTG", "6-mer SELEX enrichment z-score": 0.062}, {"sequence": "AAAAGC", "6-mer SELEX enrichment z-score": -2.56}, {"sequence": "GAGGGC", "6-mer SELEX enrichment z-score": 0.753}, {"sequence": "ACCGTC", "6-mer SELEX enrichment z-score": 0.17}, {"sequence": "GGCCGG", "6-mer SELEX enrichment z-score": 1.13}]}]}
